Consider 43 compounds from ChEMBL document CHEMBL4888484, “Replenishing the malaria drug discovery pipeline: Screening and hit evaluation of the MMV Hit Generation Library 1 (HGL1) against asexual blood stage Plasmodium falciparum ,using a nano luciferase reporter read-out” (2022).

Among all 150,000 compounds or so, about 540 (0.36%) showed an effect of 50% or more. Some of the results follow.

The experiment relates to Plasmodium falciparum. The experiment in a line: Primary screen in NF54 nanoGlo assay, in single point, at 2uM, 72h; a lower Z score goes with more inhibition. Type of experiment: functional, Erythrocyte. The note with it: timepoint 72 hour.
By % Inhibition is commonly meant the drop in the measured response relative to a control, in per cent. In the case of `O=C(Nc1ncc(Br)cn1)OCC(F)(F)F`, the “% Inhibition” value stood at 6% and the Z score was -0.66.

On to `Cc1nnccc1C(=O)N1C[C@@H](CO)Cc2cccc(F)c21`, for which the “% Inhibition” value is given as -7% and the Z score was determined as 0.85.

For `c1ccc(-c2cn3c4ccccc4nc3n2CCN2CCCCC2)cc1`, the “% Inhibition” value is reported as -3% and the Z score came to 0.38.

For `CN(Cc1cnn(C)c1)C(=O)c1ccc2c(c1)CCC2`, the “% Inhibition” value is listed as -11% and the Z score was 1.45.

On to `COc1cc2ccccc2cc1C(=O)Nc1ccc(-c2nc3cc(Cl)ccc3o2)cc1`, for which the “% Inhibition” value is listed as -9% and the Z score is 1.52.

On to `COc1ccccc1NC(=O)c1cnn2c1NC(C(=O)O)=C[C@H]2c1ccccc1Cl`, for which the “% Inhibition” value is 10% and the Z score is -1.85.

For the compound `Cc1noc(C)c1C(=O)NC[C@H]1Cc2ccccc21`, the “% Inhibition” value is recorded as -5% and the Z score is 0.45.

Turning to `CC(C)(C)C(=O)Nc1cnccc1[C@@H](NCCCO)C(F)(F)F`, the “% Inhibition” value was -6% and the Z score came to 0.8.

With `CCn1nnnc1NC(=O)N[C@H]1CCCc2ccccc2C1`, the “% Inhibition” value is recorded as -2% and the Z score is 0.37.

As to `Cc1nc(C(=O)OCc2ccc(OC(F)F)cc2)c2n1CCCC2`, the “% Inhibition” value is on record as -10% and the Z score is 0.96.

On to `O=C(CCc1ccccc1)N1CC(Oc2cccnc2)C1`, for which the “% Inhibition” value was -10% and the Z score is on record as 1.83.

As for `CN(Cc1noc2c1CC(C)(C)CC2)c1cccc(CC(=O)O)c1`, the “% Inhibition” value is listed as -12% and the Z score was 2.11.

Consider `CCCS(=O)(=O)N(C)CC(=O)NCc1sccc1C`, for which the “% Inhibition” value is given as -5% and the Z score is on record as 0.55.

In the case of `Cc1ccc2nc(NC(=O)CS(=O)(=O)Cc3ccccc3)sc2c1`, the “% Inhibition” value is given as -9% and the Z score was 1.8.

For the compound `O=C(NC[C@H]1CCOC1)c1ccc(Br)o1`, the “% Inhibition” value was -13% and the Z score is 2.1.

Take `COc1cccc(CN2CCc3nc(N4CCCC4)ncc3C2)c1`: the “% Inhibition” value is recorded as -4% and the Z score came out at 0.53.

Turning to `C[C@@H](COc1ccccc1F)NC(=O)NC1CCC(O)CC1` (stereo partly specified), the “% Inhibition” value amounted to 2% and the Z score was -0.26.

As to `COCCOCCC(=O)NC1C(C)CCCC1C` (stereo unspecified), the “% Inhibition” value is recorded as -11% and the Z score came out at 1.45.

With `Cc1cc(CN2CCC3(CC2)C[C@@H]3c2nnc3n2CCCCC3)on1`, the “% Inhibition” value is on record as -8% and the Z score worked out at 1.43.

As to `COc1ccccc1COC(=O)Nc1c(C)nn(C)c1Cl`, the “% Inhibition” value was determined as 2% and the Z score is -0.32.

In the case of `O=C(c1ccccc1S(=O)(=O)N1CCc2cc(F)ccc21)N1CCOCC1`, the “% Inhibition” value is given as -9% and the Z score was found to be 1.07.

As to `Cc1cc(NS(=O)(=O)c2cccc(C(=O)NCc3ccc(F)c(C)c3)c2)no1`, the “% Inhibition” value was 0% and the Z score is reported as -0.04.

With `C[C@H]1CCC(=O)N1c1ccc(NC(=O)C2CCOCC2)cc1`, the “% Inhibition” value was -4% and the Z score was found to be 0.84.

Take `COc1ccc(-c2cc3c(=O)n(CCNC(=O)c4ccc(OC)nc4)ccn3n2)cc1`: the “% Inhibition” value is on record as 3% and the Z score was -0.43.

Take `COC[C@@H]1CN(C(=O)c2ccc(F)cc2Cl)C[C@H]1c1ccccn1`: the “% Inhibition” value is -11% and the Z score turned out to be 1.78.

Consider `CCn1ccnc1CN(C)c1nc(-c2cccnc2)nc2c1c(C)nn2C`, for which the “% Inhibition” value was -6% and the Z score stood at 1.15.

For the compound `CCCCNC(=O)N1CC(C(=O)NCC2CC2)CCC1c1ccc(F)c(C)c1` (stereo unspecified), the “% Inhibition” value is listed as -23% and the Z score was found to be 2.19.

In the case of `CN(C[C@H](O)c1ccccc1)C(=O)Cn1nnnc1CN1CCCCCC1`, the “% Inhibition” value is given as -17% and the Z score worked out at 2.85.

Regarding `CC(=O)NCCCN(C)C(=O)C(C)(C)c1ccc(C)cc1`, the “% Inhibition” value worked out at 2% and the Z score is reported as -0.34.

Consider `COCCN1C[C@@H](Cc2ccc(C(=O)N3CCCCC3)cn2)CC1=O`, for which the “% Inhibition” value is reported as -1% and the Z score turned out to be 0.2.

Regarding `O=C(Cc1c(F)cccc1F)Nc1cncnc1-n1cccn1`, the “% Inhibition” value is -12% and the Z score is listed as 1.51.

With `CCOC(=O)c1nnsc1Nc1ccc(C)c(C)c1`, the “% Inhibition” value was -9% and the Z score is given as 1.17.

For the compound `O=c1[nH]nc(CCn2ccnc2-c2ccccc2-c2ccco2)[nH]1`, the “% Inhibition” value is -14% and the Z score amounted to 1.58.

For the compound `CCn1cc(CN2CCC3(CC[C@@H]3OCc3nc(C)no3)CC2)c(C)n1`, the “% Inhibition” value is reported as -6% and the Z score came out at 0.84.

Consider `Cc1ccc(-c2nc3nc(C)c(CC(=O)Nc4cccc(Cl)c4C)c(C)n3n2)cc1`, for which the “% Inhibition” value was -8% and the Z score was found to be 1.13.

For `CO[C@H]1COCC[C@@H]1NC(=O)CCc1cn[nH]c1`, the “% Inhibition” value is recorded as -5% and the Z score was found to be 0.84.

Consider `CC(C)c1ccc(NS(=O)(=O)c2ccc(-c3cnc(C4CC4)o3)cc2)cc1`, for which the “% Inhibition” value was -11% and the Z score was found to be 2.11.

On to `COc1ccc2c(c1)Oc1ccccc1N=C2N1CCN(S(=O)(=O)c2ccc(Cl)cc2)CC1`, for which the “% Inhibition” value came out at 3% and the Z score is on record as -0.33.

For the compound `COCC(=O)N1CCN(C(=O)c2ccccc2Cl)[C@H]2CS(=O)(=O)C[C@H]21`, the “% Inhibition” value is recorded as -9% and the Z score was determined as 1.69.

For the compound `COc1cc(OC)c(CN2CCN(C)[C@@]3(CCNC(=O)CC3)C2)cc1Cl`, the “% Inhibition” value is on record as 1% and the Z score was -0.17.

As for `O=C(N[C@@H](c1ccsc1)c1cccs1)c1ccc2nsnc2c1`, the “% Inhibition” value is reported as -8% and the Z score is given as 1.44.

As to `Cc1ccc(C(=O)N[C@@H](Cc2c[nH]cn2)C(=O)O)n1C(F)F`, the “% Inhibition” value came out at 10% and the Z score was -1.74.

On to `COCC#CCN(c1ccc(C(C)=O)cc1)S(C)(=O)=O`, for which the “% Inhibition” value turned out to be 0% and the Z score is reported as -0.06.
